Binding signal data for 22 molecules are collected here from publication PMC12136788.

T1: UNK ZnF1-6 (called full-length) (human, UniProt Q9C0B0 30-357)
T1 sequence: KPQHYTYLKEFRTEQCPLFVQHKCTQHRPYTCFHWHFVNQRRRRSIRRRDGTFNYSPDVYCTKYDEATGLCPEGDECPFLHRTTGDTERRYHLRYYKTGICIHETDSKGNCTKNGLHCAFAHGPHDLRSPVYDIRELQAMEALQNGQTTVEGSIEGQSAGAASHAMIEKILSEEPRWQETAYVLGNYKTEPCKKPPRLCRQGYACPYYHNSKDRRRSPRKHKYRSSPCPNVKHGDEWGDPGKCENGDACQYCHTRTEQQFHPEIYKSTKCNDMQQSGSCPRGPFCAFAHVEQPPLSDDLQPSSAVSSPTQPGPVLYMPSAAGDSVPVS

B1: chr17:67340809:67340863:-|CDS_3pUTR|ENSG00000197170|msi1_unk|FALSE|overlapping (ssRNA)
RNA: GGGAGUUCUACAGUCCGACGAUCACAAAACUACGCAUCUCAUAGCCAAAGAGGAGAUGAUACAUAAUCUACAAUAAGGGUCUUAGUGCUUUAGAAAAAAGUUAAAAUUGGAAGUCAUUAAAAAAAGACUGUUAUAAUGGUGUACAACAGAGGAUUGAGCAUCA
B2: chr19:35623609:35623710:+|3pUTR|ENSG00000249115|unk|FALSE|unique (ssRNA)
RNA: GGGAGUUCUACAGUCCGACGAUCGCCUUCUAGUUUGUAUAGUUUCUUUUUUUACAUGUAAAUCAGCCAUUUGGAAUUUAUCCUAGCACAUGGAUCCAAUUUUGUCUUAUUUUACAUAUAUCCUAGUAGCACUUACUGAAAUUCCAACAGAGGAUUGAGCAUCA
B3: chr14:99169286:99174150:-|three_prime_utr|ENSG00000127152|control|control|control (ssRNA)
RNA: GGGAGUUCUACAGUCCGACGAUCAAUUCCUUUAAGAGAUUUUGUUGGGUAUCCAUCCCUUCUUUGUUUUUUUUUUAACCCGGUAGUAGCCUGAGCAAUGACUCGCAAGCAAUGUUAGAGGGGAAGCAUAUCUUUUAAAUUAUACAACAGAGGAUUGAGCAUCA
B4: chr1:13115521:13116400:-|CDS|ENSG00000275774|control|control|control (ssRNA)
RNA: GGGAGUUCUACAGUCCGACGAUCGAACAGAGCAAACAAGAGGUAGAGGUGAAAAAUGCUAAGUCAGAAGAGGAGCAGAGCAGUAGCUCCAUGAAGAAAGAUGAGACUCAUGUAAAGAUGGAGUCUGAGGGGGGUGCAGAAGACCAACAGAGGAUUGAGCAUCA
B5: chr19:45711045:45711146:-|3pUTR|ENSG00000177051|msi1|FALSE|bound_elsewhere (ssRNA)
RNA: GGGAGUUCUACAGUCCGACGAUCGAAUUGGGGGCUGUCAGGUCACAGGUGGGAUCUGGCAUUUUUUUAUGACAGUCCAUUUCUAGAUGGUUUGCCUAUUAAAGAAGUGGGGGGGAAAUACUGUUUUCUCCUUAACCUCAAGCUCAACAGAGGAUUGAGCAUCA
B6: chrX:14865087:14865190:-|CDS|ENSG00000181544|unk|total|mutant (ssRNA)
RNA: GGGAGUUCUACAGUCCGACGAUCAUAUUUUUUACUAAUCCUUCACAGUACUAAUAAAUUUGAAAUGCGUUUGAGUUUUAAACCCGGCUAUGAGAUGAAGGAUGGCCUAAGGGUCCUUAAUGGCCCUUUAAUUUUAUGGAGGCACAACAGAGGAUUGAGCAUCA
B7: ENSG00000136451:be:win_3001|3pUTR|ENSG00000136451|bound_else_gene|NA|bound_elsewhere_windowed (ssRNA)
RNA: GGGAGUUCUACAGUCCGACGAUCUGGUUUUUUUCAUUUUUUAAUCAUUGCAGUUAAGAGAAAUGGAAAUUAGUUGUGUUAAUCUUGCAGAAUGUUUGCAGGACUGACUAUCAAACUGGAUGAUUUCCAUUUAUACCCUACUGUCAACAGAGGAUUGAGCAUCA
B8: chr3:105576037:105576138:+|3pUTR|ENSG00000170017|msi1|total|mutant (ssRNA)
RNA: GGGAGUUCUACAGUCCGACGAUCCUCCGUUUAAUAAAAGCUUCCGCCGUGCAUUGGUAUGGAUUAAAUGCAUAAAAUAUUCUCCGACUCGAUGCUGUAUAAAAUAUUAUGGGAAAAAAAGAAAAUACGUUAUUUUGCCUCUAACAACAGAGGAUUGAGCAUCA
B9: chrX:120253675:120253799:+|CDS|ENSG00000177485|unk|FALSE|bound_elsewhere (ssRNA)
RNA: GGGAGUUCUACAGUCCGACGAUCUAAAAUUGUUCGUGUUAGAUCAGAUUUGCUUGAUGAGUUAAUUAAAUCAGGGCAGUUAUUAGGAGUGAAAUUUAUAGCAGAGCUUGGUGUCCCAUUGUCACAGGUUAAAAGCAUCUCAGGCAACAGAGGAUUGAGCAUCA
B10: chr1:18907414:18907603:-|3pUTR|ENSG00000169991|msi1|total|mutant (ssRNA)
RNA: GGGAGUUCUACAGUCCGACGAUCCCUUGAUUUCCCUGAUAACUUGAUGUUCUUCCCUCCCUCGCCAGCCAACAACCGAGGCUCCGAGAUCUGUAAUUUCUCUGUGAGAAAGUCUGAAGGGGCCAGGCCUGGUCUCUGCUCCCUCAACAGAGGAUUGAGCAUCA
B11: chr2:169127108:169128830:-|three_prime_utr|ENSG00000081479|control|control|control (ssRNA)
RNA: GGGAGUUCUACAGUCCGACGAUCCUGCAACAGAAGACACUUUUAAAGACACCGCAAAUCUUGUUAAAGAAGACUCUGAAGUAUAGCUAUACCAGCUAUUUAGGGAAUAAUUAGAAACACACUUUUGCACAUAUAUUUUUUACACAACAGAGGAUUGAGCAUCA
B12: ENSG00000070961:be:win_2001|CDS|ENSG00000070961|bound_else_gene|NA|bound_elsewhere_windowed (ssRNA)
RNA: GGGAGUUCUACAGUCCGACGAUCAAAUGAUAUUGUCACCGGCCUUACAUGCAUUGCUGUUGUGGGGAUUGAAGAUCCUGUGAGACCUGAGGUGCCAGAUGCAAUUAAAAAGUGUCAGAGGGCUGGAAUUACUGUGCGGAUGGUCAACAGAGGAUUGAGCAUCA
B13: ENSG00000144554:stop:overlap|stop_codon|ENSG00000144554|stop_codon|NA|stop_codon (ssRNA)
RNA: GGGAGUUCUACAGUCCGACGAUCACGAAGUAAGUGCUGGAGAAAAGGAGCAAGAUAGUGAUGAGAGUUAUGAUGACUCUGAUUAGACCCCAGAUAAAUUGUUGCCUGCUUCUGUGUCUCUGCCAGCCUGUGAUCAUUUUGUGUCAACAGAGGAUUGAGCAUCA
B14: ENSG00000107863:be:win_651|CDS|ENSG00000107863|bound_else_gene|NA|bound_elsewhere_windowed (ssRNA)
RNA: GGGAGUUCUACAGUCCGACGAUCAGUUGAAAUAUCUCCUCCUGACUCAUCAUUGAGCAAACAGCAAACCAGUACACCAGUACUGACACAACCUGGUAGGGCCUAUAGAAUGGAAAUACAAGUGCCUCCAUCACCAACAGAUGUCAACAGAGGAUUGAGCAUCA
B15: chr2:110123602:110123703:-|3pUTR|ENSG00000144061|unk|total|mutant (ssRNA)
RNA: GGGAGUUCUACAGUCCGACGAUCAUCCUCCACGAUUACGUGAAUAAAAUGAUGGAACCAAAAAUCACUGUCACUUUACAACUCCGGUUUUACUCUUUUCUUUCUACAGACCAUAUUUUUAAAGAAAUGUUUAUACAAUAAUUUCAACAGAGGAUUGAGCAUCA
B16: chrX:115010634:115010735:-|CDS|ENSG00000123496|msi1|total|mutant (ssRNA)
RNA: GGGAGUUCUACAGUCCGACGAUCUGGAUCAUCAGAGAACAAGCCUAUCAGAUCCAGUUAUUUCACUUUUCAGCUUCAAAAUACCGGUGAUGUAAACCAACAAACAACUUCAAAUUCAUUGUUUCCCGUUCCGGCCAUUUACAACAACAGAGGAUUGAGCAUCA
B17: chr18:68676332:68676434:-|3pUTR|ENSG00000166479|msi1_unk|FALSE|overlapping (ssRNA)
RNA: GGGAGUUCUACAGUCCGACGAUCAUCAAGAUUAUGAGGUUAAAAAUAAUGUGGUUUUAUAUAGCAUAGUGGUUUUAUUUUGUUAGUUAUUUUUAAAGGAGAAGAAAUGUUACUUUUUAACUUUAUACUCAGUUGCAUUAUCAUCAACAGAGGAUUGAGCAUCA
B18: ENSG00000198589:be:win_1551|CDS|ENSG00000198589|bound_else_gene|NA|bound_elsewhere_windowed (ssRNA)
RNA: GGGAGUUCUACAGUCCGACGAUCACAGAUGCUUGCCUGUAAGGGCUUCUUGGUAAUAGGAUAUAGCCUUGAAAAGUCUUCCAAAUCUCAUGUUAGCAGAGCAGUACUUGAACUUUGCCUUGCAUUUUCAAAAUAUCUGAGUAACAACAGAGGAUUGAGCAUCA
B19: chr5:144162273:144162391:-|CDS|ENSG00000145817|unk|total|mutant (ssRNA)
RNA: GGGAGUUCUACAGUCCGACGAUCCCCACCGGCUGGCAAAAUCCAGUUUGGCUAUGUAUACGGGAUCAGUGCAAUUGGAUGUCCCGGAAUGUUUUGUUUAUUAAACUUAAUGAGUAUGACAGGUGUUUCAUUUGGUUGUGUGGCCAACAGAGGAUUGAGCAUCA
B20: chr20:38493008:38493109:+|CDS|ENSG00000170471|unk|FALSE|unique (ssRNA)
RNA: GGGAGUUCUACAGUCCGACGAUCAUUGGAUGGAGAGACUGUAAAAUAUUGCGUUGAUGUAUAUACAGACUGGAUUAUGGCUUUAGUGUUGCCAAAAGAUUCUAUUCCAUUGCCAGUUAUUAAAGAGCCUAAUCAAUAUGUUCACAACAGAGGAUUGAGCAUCA
B21: ENSG00000115904:stop:overlap|stop_codon|ENSG00000115904|stop_codon|NA|stop_codon (ssRNA)
RNA: GGGAGUUCUACAGUCCGACGAUCUUUUGCAACGAAUGGAAGAAUUUAUUGGAACAGUAAGAGAGCUGUACAGCCAUCAGAAUUAGUUGGAAGUGUGUGGACAAAAGAAGACAAAGAAAUUAACUCUCCUAAUCUUCUGAAAAUCAACAGAGGAUUGAGCAUCA
B22: chr13:75481370:75481471:-|CDS|ENSG00000136111|msi1|FALSE|unique (ssRNA)
RNA: GGGAGUUCUACAGUCCGACGAUCCUCAGCGCGCCCUUCCUGCGUUGCGUCCCCGCGCCGGGCGCUGGGGCCUCGGGGGGCACUAGUCCGUCGGCCACGCAGCCCAACCCGGCGGUAUUCAUCUUCGAGCACAAGGCGCAGCAUCAACAGAGGAUUGAGCAUCA

This is one part of the list.

In this test the target is T1, UNK ZnF1-6 (called full-length). The experiment in a line: nsRBNS (natural sequence RNA bind-n-seq); RBNS binding buffer (assumed for nsRBNS): 25 mM Tris pH 7.5, 150 mM KCl, 3 mM MgCl2, 0.01% Triton X-100, 500 ug/ml BSA, 20 U/ml SUPERase-In, 4 C; UNK is unkempt and MSI1 is Musashi-1; names of the RNAs are library labels; protein concentration not given here; high values mean tight binding.
For the molecule B1, the binding signal is 0.932 enrichment R.

Consider B2, for which the binding signal came to 14.9 enrichment R.

As for B3, the binding signal was 1.39 enrichment R.

In the case of B4, the binding signal amounted to 0.882 enrichment R.

Regarding B5, the binding signal worked out at 0.636 enrichment R.

As to B6, the binding signal was determined as 0.538 enrichment R.

B7 registered a binding signal of 0.499 enrichment R.

The molecule B8 yielded a binding signal of 0.529 enrichment R.

With B9, the binding signal was 1.83 enrichment R.

B10: the binding signal came out at 0.733 enrichment R.

In turn, B11 showed a binding signal of 10 enrichment R.

B12 had a binding signal of 0.643 enrichment R.

With B13, the binding signal amounted to 0.553 enrichment R.

On to B14, for which the binding signal turned out to be 0.54 enrichment R.

Turning to B15, the binding signal stood at 1.11 enrichment R.

Turning to B16, the binding signal is 0.399 enrichment R.

Molecule B17 registered a binding signal of 48.4 enrichment R.

B18: the binding signal was found to be 0.506 enrichment R.

Regarding B19, the binding signal amounted to 0.596 enrichment R.

With B20, the binding signal is 0.5 enrichment R.

Turning to B21, the binding signal is 1.76 enrichment R.

The molecule B22 yielded a binding signal of 0.5 enrichment R.
